Experimental data as given in the supplement of paper PMC3334620.
The full ranking holds about 33,000 sequences; the median of “E-score (-0.5 to 0.5)” is about -0.054, and the highest 2% start at about 0.39. The list shows a part of the results.

What follows are sequences tested against Ylr278c (UniProt Q05854) (assay: PBM E-score (8-mer binding enrichment) (E-score (-0.5 to 0.5)); higher = stronger / more preferred TF binding; most listed sequences are background and not binding sites). Settings: protein concentration: 200 nM; construct: GST-DNA-binding domain.
Procedure, shortened: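 Bound GST-tagged yeast transcription factors, applied at about 100-200 nM to double-stranded universal all-10-mer Agilent arrays, were detected with fluorescent anti-GST. Scans were normalised with masliner. A modified Wilcoxon-Mann-Whitney statistic, the E-score, was assigned to each ungapped eight-base word pooled with its reverse complement by the Universal PBM Analysis Suite.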

| Sequence | PBM E-score |
| --- | --- |
| ACTTTGAG | -0.274 |
| ACGGTACA | -0.187 |
| AATGGTCG | -0.0882 |
| AAGGGGGT | -0.278 |
| CAGTCCTC | -0.18 |
| ATCCCGTC | 0.231 |
| TCATGAGA | -0.146 |
| CAAAGGAG | -0.0784 |
| CATGACGA | -0.0962 |
| GACGGCCA | 0.054 |
| ATAAAGAG | -0.133 |
| AAACGTGT | 0.0136 |
| CACTGATG | -0.18 |
| GCGCCGTA | 0.231 |
| ACTTATAA | 0.114 |
| TCTGAGAA | -0.138 |
| ATAAGTCA | -0.0695 |
| CAAGCCCG | 0.206 |
| AGTAGCAG | -0.185 |
| ATCGCGAG | 0.0801 |
| GAAGTTAC | 0.0322 |
| CCAATACA | -0.0933 |
| GATTGTAC | -0.145 |
| CACCATAA | -0.106 |
| ATCATTCG | -0.0178 |

| Sequence | PBM E-score |
| --- | --- |
| TACCAGCA | -0.0848 |
| GGGAGCAC | 0.0245 |
| AGGTGTGG | -0.0626 |
| ACCTGTGA | -0.0855 |
| GTCTAGGA | -0.122 |
| GTATTTTA | -0.066 |
| AGATGGCG | 0.0715 |
| AGATACGG | 0.167 |
| TAAAGGGA | -0.0959 |
| AAGTCCGA | 0.483 |
| GATATAGC | 0.0728 |
| CAATCGAA | -0.0353 |
| CAAGCCCA | -0.357 |
| GTTTCTCA | -0.153 |
| TAGAGGCA | -0.256 |
| CACCATCA | -0.0978 |
| AAGCTGGA | -0.226 |
| AACTGGTG | -0.292 |
| ATCCAATG | -0.257 |
| CTCATGGA | -0.172 |
| GGGATGTA | 0.0101 |
| AAGAGACC | -0.0288 |
| GTATTGAC | -0.259 |
| ACGACCGA | -0.123 |
| GGGGAAAC | 0.314 |

| Sequence | PBM E-score |
| --- | --- |
| GACACTCC | 0.219 |
| CCAGGAGC | -0.101 |
| AAGAGCCA | -0.0202 |
| GACACATC | -0.00964 |
| CCTTTTAA | -0.113 |
| CTGCGATA | -0.0748 |
| AAGGGCAC | -0.175 |
| GCATTGCA | -0.0506 |
| CGGAGTCC | 0.464 |
| CGCGGCTA | 0.232 |
| ACTCATAA | -0.125 |
| CTCTAAAG | -0.144 |
| AGCTCATG | -0.248 |
| ACGCAACC | 0.0752 |
| CTGACGCC | -0.0288 |
| AAAGGTAG | -0.284 |
| CTGCCCCC | -0.291 |
| ACCACCTA | -0.0614 |
| CACTGAAC | -0.177 |
| ACGCGGTC | 0.193 |
| ATCCCTAG | -0.169 |
| GCGATGGA | 0.197 |
| AGTATATA | 0.134 |
| CGCCCCAC | 0.0716 |
| AGGACTCC | 0.0662 |

| Sequence | PBM E-score |
| --- | --- |
| AGCTTGCC | -0.0638 |
| AACGAGCC | -0.205 |
| CCACTAGA | -0.197 |
| CCCACGAG | -0.0542 |
| ACGTGGAG | -0.149 |
| AGACTGTC | -0.122 |
| CCGGCTAC | 0.309 |
| ATGCCCTA | -0.141 |
| CCTCTTCG | 0.0015 |
| CTTGCCTC | 0.0426 |
| CCAAATAG | -0.19 |
| CATAAATA | -0.142 |
| CGGTGTAC | 0.19 |
| CTGAAAAC | -0.0457 |
| ATACTGAC | -0.0294 |
| TCGAACGA | -0.141 |
| GAGGTATC | 0.0374 |
| AGCTAGAG | -0.143 |
| CGGCTTTC | 0.326 |
| ACCCCTCT | -0.0486 |
| ACTCCTTC | -0.105 |
| ACCGTGTG | 0.0398 |
| GAGGTCTA | -0.227 |
| GTTAGGCA | -0.268 |
| CGCAATCC | 0.233 |

| Sequence | PBM E-score |
| --- | --- |
| AATTACTC | 0.0919 |
| ACTGTCAG | -0.147 |
| CGTTGGCA | -0.0492 |
| AACATCGT | -0.124 |
| GACCTCTC | 0.119 |
| CTCGGAAG | 0.303 |
| AACTACCG | 0.221 |
| CTAGAGAC | -0.258 |
| GGGGTTGA | 0.13 |
| GATAAACC | 0.133 |
| CGGGTCGA | -0.00775 |
| ACATGTGC | 0.00577 |
| ACGGATTG | 0.185 |
| GATGCTGC | -0.13 |
| AAAGGGTG | -0.13 |
| CCTACCGA | -0.0804 |
| AACCAATG | -0.155 |
| GCGTATGA | -0.146 |
| AATTATAG | -0.08 |
| AAGCCAAC | -0.131 |
| AGGTAAGA | -0.135 |
| CTAGCGAG | -0.301 |
| ATCAACAT | -0.221 |
| CCAGTCCC | -0.0319 |
| TGCCTCCA | -0.353 |

| Sequence | PBM E-score |
| --- | --- |
| CAGCGTGC | 0.00705 |
| ATTTTCAC | 0.0946 |
| TTCGTCAA | -0.142 |
| AAGAACGT | -0.156 |
| CCCCATGC | 0.0873 |
| ATCAGTAC | -0.112 |
| ACGGGCAA | 0.036 |
| CAGACCCG | 0.165 |
| CTACTATC | 0.125 |
| CAATTCAG | -0.22 |
| GTCTAAAC | 0.0271 |
| CGATCGAC | 0.128 |
| ATTCAATA | -0.0965 |
| TTCATCAA | 0.0271 |
| TATTCTAA | -0.0279 |
| TAGCATGA | -0.306 |
| CGAATATC | 0.0129 |
| CACCTGAG | -0.226 |
| AGGATAAG | -0.00372 |
| ACAGGAAT | -0.086 |
| GCGGCTAA | 0.137 |
| GACCAGGA | -0.0831 |
| TGGGTGAA | 0.0672 |
| ACCCATCC | -0.0311 |
| GAGCAATA | -0.0795 |

| Sequence | PBM E-score |
| --- | --- |
| AGCACTTC | -0.0913 |
| AAGTGGGG | 0.0493 |
| CATTAGTA | -0.0334 |
| TCGATAGA | -0.275 |
| TCGTTAAA | 0.0488 |
| CACATCTC | -0.0504 |
| TCATCAAA | -0.118 |
| CCTCCAAG | -0.202 |
| ACCGTTAT | -0.103 |
| ACTCATCA | -0.0156 |
| AGGCACCA | -0.161 |
| AATCGATA | -0.00804 |
| AGAGCCCG | 0.0714 |
| ATTAACAA | -0.0142 |
| GAACACCA | -0.127 |
| GAATGACC | 0.192 |
| ACGCCTAC | -0.262 |
| AATAGTTA | -0.0746 |
| CCTTCCGC | 0.299 |
| GAGGATCC | 0.186 |
| GTCTCGTA | -0.0214 |
| ACACATGC | -0.156 |
